Source: PubChem BioAssay AID1671188 (National Center for Advancing Translational Sciences (NCATS), 2021)
Hit rate of the full screen: of about 100,000 compounds, about 250 (0.25%) were called active. Inconclusive results, whose numbers are uncertain, are shown with a selection of clear calls. The call rests on the fitted dose curve; in most records, active means well fitted inhibition curve with a large enough effect; inconclusive means small, poorly fitted or top-dose-only effect; inactive means flat fitted curve, though single readings scatter. No potency is given beside an inconclusive call; the fits are too rough. More than one record can exist for a structure, and the calls need not agree.
Further: nearly all actives have a fitted effect of over 60% in size.
On the % scale 0 is the no-effect control and ±100 the full control effect; potency means the concentration at half of the fitted maximal effect; tags describe the fitted curve by direction and shape.

The compounds below were run against Alanine aminotransferase 2 (Homo sapiens) (UniProt Q8TD30) (assay: Primary qHTS assay for inhibitors of Glutamate pyruvate transaminase 2 (GPT2)). Conditions: Recombinant GPT2, coupled pyruvate oxidase/HRP Amplex Red fluorescence; activity change, negative = inhibition: at 57.7 µM (top of the series) unless noted; series mostly up to 57.7 µM.
Chain of UniProt Q8TD30 (Q8TD30 whole entry, looked up): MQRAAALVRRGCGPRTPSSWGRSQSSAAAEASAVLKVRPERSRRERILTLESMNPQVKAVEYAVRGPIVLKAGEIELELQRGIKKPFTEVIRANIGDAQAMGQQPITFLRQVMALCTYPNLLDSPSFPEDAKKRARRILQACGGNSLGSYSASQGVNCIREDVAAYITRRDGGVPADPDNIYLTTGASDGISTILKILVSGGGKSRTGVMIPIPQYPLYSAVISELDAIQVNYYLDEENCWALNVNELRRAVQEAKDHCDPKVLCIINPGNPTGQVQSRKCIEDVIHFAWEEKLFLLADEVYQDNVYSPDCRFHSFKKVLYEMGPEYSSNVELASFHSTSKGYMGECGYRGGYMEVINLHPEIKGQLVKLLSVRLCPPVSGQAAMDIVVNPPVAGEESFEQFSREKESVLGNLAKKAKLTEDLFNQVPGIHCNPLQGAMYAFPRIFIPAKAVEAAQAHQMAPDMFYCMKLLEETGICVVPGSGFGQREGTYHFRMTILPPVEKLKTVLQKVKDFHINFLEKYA
How it was run: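 Recombinant GPT2 (10ng/uL) with 250uM a-KG and 2mM L-alanine, 30 min at room temperature, in HEPES pH 7.5 buffer. Pyruvate detected by pyruvate oxidase/HRP/Amplex Red fluorescence after 30 min in the dark; AOA (50uM) as positive control.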
In the case of `COc1ccc(-c2cc(N3CCCN(C(=O)C(C)c4ccccc4)CC3)n[nH]2)cc1` (stereo unspecified), the Potency is reported as inconclusive [inhibitor, single point].
For `CCOC(=O)CN1C(=O)CCN(C(=O)c2ccc(F)cc2)CC(OC)c2ccccc21` (stereo unspecified), the “outcome” value was “inactive [at 27.3 µM]”.
For `COc1ccc(C(=O)N2CCCC(c3nc(-c4ccccc4)no3)CCNC(=O)CC2)c(OC)c1` (stereo unspecified), the “outcome” value was “inactive”.
For `CN(C)Cc1nnc(C2CC(NC(=O)c3ccc4scnc4c3)C2)n1C` (stereo unspecified), the Potency was active: 5.62 µM.
In the case of `O=C(NC1CCN(c2cc(-c3ccc(F)cc3)[nH]n2)C1)c1ccccc1Cl` (stereo unspecified), the Potency is reported as inconclusive [inhibitor, single point].
For `CCC(CC)N1CC(Oc2cccc(C(=O)NCC3CC3)c2)C1`, the “outcome” value was “inactive”.
With `COC(=O)[C@H](NC(=O)[C@@H]1[C@@H](NC(=O)Nc2cccc(SC)c2)CCN1C(=O)C=C(C)C)C(C)C` the Potency was inconclusive [inhibitor, single point].
In the case of `O=c1n(-c2ccc(F)cc2F)nc2n1CCN([S+](=O)([O-])c1ccccc1)C2`, the “activity change, negative = inhibition” value is reported as inactive: 3.54%.
`O=C(NC1CCCCC1)C1CN(S(=O)(=O)c2cccc(F)c2)CC12CCOCC2` (stereo unspecified) was tested, and the “outcome” value was “inactive”.
`Cc1cc(C(=O)N2CCC3(CC(=O)NC3=O)C2)c(-c2ccccc2)o1` (stereo unspecified) was tested, and the Potency was inconclusive [inhibitor, partial curve, poor fit].
`CCNC(=O)N1CCCC(Cc2noc(-c3ccccn3)n2)C1` (stereo unspecified) was tested, and the Potency was inconclusive [inhibitor, single point].
With `CCn1c(C2CCCN(C(=O)Cc3c[nH]c4ccccc34)C2)nn(C)c1=O` (stereo unspecified) the “outcome” value was “inactive”.
With `Cc1ccc(C(=O)Nc2cccc(C(F)(F)F)c2)cc1Nc1nc(-c2cccnc2)nc2c1cnn2C` the Potency was inconclusive [inhibitor, single point].
`O=C(c1ccoc1)N1CCC2(CC1)NC(=O)N(c1ccccc1Cl)N2` was tested, and the Potency was inconclusive [inhibitor, partial curve, poor fit].
For `Cc1cccc(-c2cn[nH]c2C2CCN(C(=O)c3ccc4nccnc4c3)CC2)c1`, the Potency was inconclusive [inhibitor, full curve, poor fit].
In the case of `COC1CN(C(=O)Nc2cccc(C#N)c2)CCC(=O)N(C)c2ccccc21` (stereo unspecified), the “activity change, negative = inhibition” value is reported as inactive: -1.38% [at 27.3 µM].
`Cc1cccc(C(=O)N2CCCOCCNC(=O)[C@@H]3CCCC[C@@H]32)c1` was tested, and the Potency was inconclusive [inhibitor, full curve, poor fit].
In the case of `CCOC(=O)CN1CCCC1c1ccc(C(=O)NCCn2ccnc2)s1` (stereo unspecified), the Potency is reported as inconclusive [inhibitor, partial curve, poor fit].
`O=C(c1cccc(Br)c1)N1CCCN(c2ccnc3ccnn23)CC1` was tested, and the Potency was inconclusive [inhibitor, single point].
For `O=C(Cc1ccc(F)cc1)N1CCN(C(=O)c2nnn3c2COC(c2ccccc2)C3)CC1` (stereo unspecified), the Potency was inconclusive [inhibitor, single point].
For `COCCN1C(=O)[C@@H]2C[C@@H](CN2Cc2cccnc2)Oc2ccccc21`, the Potency was inconclusive [inhibitor, single point].
With `CN1CCC([C@@H]2CN(S(=O)(=O)c3ccc4c(c3)CCC4)C[C@H]2C(N)=O)CC1` the “outcome” value was “inactive”.
For `COc1cccc(-c2cc3c(=O)n(CCNC(=O)COc4cccc(C)c4)ccn3n2)c1`, the “activity change, negative = inhibition” value was inactive: -19%.
For `Cc1nn2c(c1-c1ccccc1-c1ccccc1)N(CCC(C)C)CCC2`, the “activity change, negative = inhibition” value was inactive: -14.5% [at 88.5 µM].
`Cc1ccc(-c2nnc([C@H]3CCN(Cc4ncc[nH]4)C3)o2)cc1` was tested, and the “activity change, negative = inhibition” value was inactive: 3.88% [at 88.5 µM].
With `C/C=C/CCC1Cc2cc(O)c(CCCC)c(O)c2C(=O)O1` (stereo unspecified) the Potency was inconclusive [inhibitor, partial curve, poor fit].
With `Cc1cc(C)cc(-c2ccc(CN3CCCC(N[S+](C)(=O)[O-])C3)cc2)c1` (stereo unspecified) the Potency was inconclusive [inhibitor, single point].
`COC(=O)c1ccc(N2C[C@H]3OC(=O)N(CCc4ccc(OC)cc4)[C@H]3C2)nc1` was tested, and the Potency was inconclusive [inhibitor, single point].
`CN(Cc1ccccc1)Cc1cn([C@H]2CO[C@H]3[C@@H]2OC[C@@H]3NC(=O)NC2CCCCC2)nn1` was tested, and the Potency was inconclusive [inhibitor, single point].
`C[C@@H]1O[C@@H](OC2C(O[C@H]3[C@H](O[C@H]4CC[C@@]5(C)C(CC[C@]6(C)C5CC=C5C7CC(C)(C)CC(O)[C@]7(C)CC[C@]56C)C4(C)C)O[C@H](C(=O)O)[C@@H](O)[C@@H]3O)OC(CO)C(O)C2O)[C@H](O)[C@H](O)[C@H]1O` (stereo partly specified) was tested, and the “activity change, negative = inhibition” value was inactive: -4.75% [at 17.1 µM].
`O=C(NCc1cccs1)c1cn2cc(-c3ccc(F)cc3)sc2n1` was tested, and the “outcome” value was “inactive”.
`CCN(CC)Cc1cc(-c2nc(C3CCOC3)no2)c(-c2ccccc2)o1` (stereo unspecified) was tested, and the “activity change, negative = inhibition” value was inactive: 0.417%.
`CC(C)C[C@@H]1N[C@H](C(=O)NC2CCC2)Cc2cn(Cc3ccncc3)c3cccc1c23` was tested, and the “activity change, negative = inhibition” value was inactive: -13.8% [at 88.5 µM].
With `CN(C)N=Nc1nc[nH]c1C(N)=O` the “activity change, negative = inhibition” value was inactive: 1.2%.
In the case of `O=C(c1ccccc1Cl)N1CCN(c2cc(-c3ccccc3)[nH]n2)CC1`, the Potency is reported as inconclusive [inhibitor, single point].
`O=C(O)CCc1nc(C2CCOCC2)n[nH]1` was tested, and the Potency was inconclusive [inhibitor, single point].
In the case of `CCOc1ccc(Cc2nccc3cc(OCC)c(OCC)cc23)cc1OCC`, the Potency is reported as inconclusive [inhibitor, single point].
In the case of `COCCNC(=O)[C@@H]1CCC[C@@H](NCc2nccn2C)CN(C)C(=O)C1`, the Potency is reported as inconclusive [inhibitor, partial curve, poor fit].
`O=C(/C=C/c1ccccc1O)O[C@@H]1O[C@H](CO)[C@@H](O)[C@H](O)[C@H]1O` was tested, and the Potency was inconclusive [inhibitor, single point].
`C[C@H]1[C@H](C)C[C@@H](C(=O)O)C2CC[C@]3(C)C(=CC[C@@H]4[C@@]5(C)CC[C@H](O)C(C)(C)[C@@H]5CC[C@]43C)[C@@H]21` (stereo partly specified) was tested, and the “activity change, negative = inhibition” value was inactive: -3.13%.
With `COc1ncccc1-c1cc(C(=O)NCC2CCOCC2)c2c(c1)ncn2C` the Potency was inconclusive [inhibitor, full curve, poor fit].
